About 230 (0.21%) of roughly 110,000 compounds showed an effect of 50% or more. The list shows a part of the results.
These compounds were tested against DPAP1 (Plasmodium falciparum, UniProt Q8IIJ9) (assay: primary screen, percent inhibition; read by cleavage of a fluorogenic dipeptide substrate; higher = more effect of the substance).
Parameters: species or system P. falciparum D10 trophozoite lysates; single well
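Also: 30 min substrate incubation versus DMSO and 10 µM JCP410 controls.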

Chain of DPAP1 (Q8IIJ9 whole entry, looked up): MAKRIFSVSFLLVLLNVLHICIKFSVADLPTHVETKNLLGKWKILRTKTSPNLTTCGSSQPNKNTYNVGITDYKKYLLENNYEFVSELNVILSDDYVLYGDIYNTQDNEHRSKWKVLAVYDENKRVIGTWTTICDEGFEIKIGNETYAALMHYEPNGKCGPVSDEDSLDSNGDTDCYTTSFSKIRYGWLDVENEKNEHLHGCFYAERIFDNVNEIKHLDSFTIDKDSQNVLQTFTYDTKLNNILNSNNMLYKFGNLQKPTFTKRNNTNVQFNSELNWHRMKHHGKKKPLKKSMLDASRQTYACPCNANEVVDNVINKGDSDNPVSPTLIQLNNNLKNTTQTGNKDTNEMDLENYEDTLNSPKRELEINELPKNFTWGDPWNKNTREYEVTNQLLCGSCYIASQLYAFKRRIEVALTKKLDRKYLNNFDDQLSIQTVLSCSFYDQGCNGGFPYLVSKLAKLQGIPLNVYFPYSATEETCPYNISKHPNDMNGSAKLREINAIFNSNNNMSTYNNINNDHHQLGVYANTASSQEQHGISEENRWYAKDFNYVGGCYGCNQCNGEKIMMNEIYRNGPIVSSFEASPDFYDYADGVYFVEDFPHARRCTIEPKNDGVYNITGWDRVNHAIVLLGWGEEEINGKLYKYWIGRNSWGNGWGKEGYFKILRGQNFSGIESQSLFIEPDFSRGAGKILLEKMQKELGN

In order of rising “% Inhibition @ 10 uM” value:
1. Cc1nn(C(C)C(=O)NCCN2CCOCC2)c(=O)c2c1sc1ccccc12 (stereo not shown)  -11.5%
2. O=C(CN1CCN(Cc2cccc(Cl)c2)C1=O)NCc1ccccn1  -9.46%
3. CC(=O)N1CCC(=O)c2cc3ccccc3cc21  -9.24%
4. COc1cc(C(=O)OCCn2c(=O)c3c(ncn3CCCN(C)C)n(C)c2=O)cc(OC)c1OC  -8.69%
5. CCOc1ccc(C2C3=C(O)CCCC3=NC(C)=C2C(=O)Nc2ccccc2C)cc1 (stereo not shown)  -8.56%
6. CN(Cc1ccccc1)c1nc2c(S(=O)(=O)c3ccc(Cl)cc3)nnn2c2ccsc12  -7.14%
7. CCCC[C@@H](/C=C/S(=O)(=O)c1ccccc1)NC(=O)C(CSCc1ccccc1)CSCc1ccccc1  -6.98%
8. O=C(c1cnn2ccccc12)N1CCC(C(O)(c2ccccc2)c2ccccc2)CC1  -6.52%
9. O=Cc1cn(Cc2cc(=O)n3ccccc3n2)c2ccccc12  -6.4%
10. COc1cc2c(c(OC)c1)C1(CC(C)(C)N2)CC(C)(C)Nc2cc(OC)cc(OC)c21  -6.02%
11. COc1ccc(/C=C/C(=O)c2cc3c(nc2C)CCCC3)cc1  -5.96%
12. O=C(Nc1ccc(Cl)cc1)Nc1ccccc1OC(F)(F)C(F)Cl (stereo not shown)  -5.23%
13. CCCN1CCC(N2CCN(c3ccc(C(C)=O)cc3)CC2)CC1  -5.2%
14. Cc1ccc(C)c(S(=O)(=O)/N=C2\C=C(NS(=O)(=O)c3ccccc3)C(=O)c3ccccc32)c1  -5.2%
15. O=C(CN1CCCCC1)N1c2ccccc2Sc2ccccc21  -5.13%
16. CCOC(=O)C1=CN(C)C=C(C(=O)OCC)C1c1ccccc1OC  -5.05%
17. Cc1nc2sccn2c(=O)c1S(=O)(=O)N1CCC(Cc2ccccc2)CC1  -4.95%
18. Cc1ccc(S(=O)(=O)N(CC(=O)NCc2cccnc2)c2cccc(Br)c2)cc1  -4.93%
19. COc1cccc(/C=c2\sc3nc(-c4cccc(Cl)c4)nn3c2=O)c1OC  -4.85%
20. CCOC(=O)N1CCN(C2C3CC4CC(C3)CC2C4)CC1 (stereo not shown)  -4.75%
21. OC(COc1ccc2ccccc2c1)CN1CCN(c2ccccc2F)CC1 (stereo not shown)  -4.65%
22. O=C(NC(Cc1c[nH]c2ccccc12)C(=O)NC1CCCCC1)OCc1ccccc1 (stereo not shown)  -3.96%
23. Cn1c(SCc2ccccc2)nc2c(c1=O)C1(CCCC1)Cc1ccccc1-2  -3.93%
24. CCOc1cc2c(cc1OCC)C(CC(=O)O)N(C(=O)NCc1ccccc1)CC2 (stereo not shown)  -3.61%
25. NCCCc1nc2cc3sc(CCCN)nc3cc2s1  -3.49%
26. O=C(O)c1ccccc1C(c1ccc(O)cc1)c1ccc(O)cc1  -3.41%
27. Cc1ccc(C(=O)N(Cc2ccccc2)Cc2ccccc2)cc1  -3.04%
28. O=C(NCC1CCCO1)NC1CCCCC1 (stereo not shown)  -3.02%
29. C/C(=N\CCCN(C)C)c1c(C(F)(F)F)nn(-c2nc3ccccc3s2)c1O  -2.89%
30. Cc1noc(C)c1S(=O)(=O)N1CCCC(C(=O)NCCN2CCN(Cc3ccccc3)CC2)C1 (stereo not shown)  -2.83%
31. Cc1c(Cl)cccc1-n1ncc(C(=O)O)c1C1CCNCC1  -2.83%
32. O=[N+]([O-])c1ccc(C(O)CNCc2ccccc2)cc1 (stereo not shown)  -2.59%
33. N#CC1=C(N)Oc2[nH]nc(C(F)(F)F)c2C1c1cccnc1 (stereo not shown)  -2.53%
34. O=C(CCC(=O)N1Cc2ccccc2Oc2ncccc21)NCC1CCCO1 (stereo not shown)  -2.09%
35. Cc1ccccc1-c1nc(CS(=O)(=O)CC(=O)NCCCOC(C)C)c(C)o1  -1.89%
36. CCOC(=O)c1c(C)c(-c2ccccc2)n(CC(=O)NC2CCN(C(=O)OCC)CC2)c1C  -1.66%
37. O=C(CCSc1cccc2cccnc12)Nc1ccc(Cl)cc1  -1.63%
38. N=c1c2c(-c3ccccc3)c(-c3ccccc3)n(Cc3ccco3)c2ncn1CCCn1ccnc1  -1.47%
39. COc1ccc(Cl)cc1NC1=C(Cl)C(=O)N(Cc2ccccc2)C1=O  -1.07%
40. FC(F)(F)c1nc(NCc2cccs2)nc2c1CCCCC2  -0.972%
41. C/C(Cl)=C/CSc1nc2c(c(=O)[nH]c(=O)n2C)n1C(C)C  -0.864%
42. COc1ccc(N(CC(=O)Nc2ccccc2C)S(C)(=O)=O)cc1  -0.796%
43. C=CCC(N)(CC=C)c1ccc(C)cc1  -0.759%
44. CCc1ccc(S(=O)(=O)NCc2csc(-c3cccnc3)n2)s1  -0.72%
45. O=C(NCc1ccco1)c1ccc(CS(=O)Cc2ccc(Cl)cc2)o1 (stereo not shown)  -0.716%
46. CCOC(=O)c1c(C)[nH]c(C)c1S(=O)(=O)NCC(=O)N1CCn2c1nc1ccccc12  -0.518%
47. COc1ccc(NCc2ccc(OCC(=O)NC(C)(C)C)cc2)cc1  -0.511%
48. Cc1cc(Br)ccc1OCC(=O)NCCC1=CCCCC1  -0.473%
49. CC(=O)Nc1ccc(Oc2cccc(Cl)c2Cl)c(Cl)c1  -0.424%
50. Cc1cc(-c2ccc(C)c(S(=O)(=O)N(C)CCCc3ccco3)c2)on1  -0.342%
51. CCOC(=O)c1c(C)[nH]c(C)c1S(=O)(=O)NCC(=O)N1CCN(Cc2ccccc2)CC1  -0.166%
52. COc1ccc(CNCc2ccc3c(c2)OCO3)c(OC)c1OC  -0.116%
53. O=C(NCCO)c1nnc(-c2cccc(Cl)c2)o1  -0.0709%
54. COc1ccc(-c2nc3c4cnn(Cc5ccccc5)c4ncn3n2)cc1OC  0.362%
55. COc1ccc2c(c1OC)C(O)OC2C1c2c(cc3c(c2OC)OCO3)CCN1C (stereo not shown)  0.709%
56. COc1ccccc1CNC(=O)CN(C)S(=O)(=O)c1ccc2[nH]c3c(c2c1)CCCC3  0.95%
57. CCOC(=O)C1=C(CSc2nc(C)c(CCSC)[nH]2)NC(=O)NC1c1ccc2c(c1)OCO2 (stereo not shown)  1.32%
58. CCc1c(C)sc(NC(=O)COCc2cc(-c3ccc4c(c3)OCO4)on2)c1C#N  1.34%
59. Fc1ccccc1CNC1CCN(CCc2ccccc2)CC1  1.37%
60. CN1CCC(N(C)Cc2c(F)cccc2F)CC1  1.62%
61. COc1ccc(-c2c3c(nc4sc(C(=O)NCCc5ccccc5)c(N)c24)CC(C)(C)CC3=O)cc1  1.63%
62. O=C(Nc1nccs1)c1ccc(COc2ccc(Cl)cc2)cc1  1.67%
63. Cc1cc(C)c2ccc(/C=C/c3ccccc3N)nc2c1O  1.83%
64. COc1ccc(CNC2CCCCC2)c(OC)c1  1.92%
65. CCn1nc(-c2cc(Br)cs2)nc2c(=O)n(C)c(=O)nc1-2  2.19%
66. O=C(O)CNC(=O)/C=C/c1cccc(Cl)c1  2.35%
67. COc1ccc(-c2nc(CSCC(=O)NCCC3=CCCCC3)c(C)o2)cc1  2.37%
68. COc1ccc(-c2nc(CN3CCC(C(=O)NCC4CCCO4)CC3)c(C)o2)cc1OC (stereo not shown)  2.37%
69. O=C(Nc1cccc(C(=O)O)c1)/C(=C\c1ccc2c(c1)OCO2)NC(=O)c1ccccc1  2.38%
70. Oc1ccc2ccccc2c1CN1CCCCCC1  2.6%
71. Cn1c(=O)[nH]c(=O)c2c1nc(Br)n2CC(O)COc1ccccc1 (stereo not shown)  3.06%
72. COc1cccc(C2=NOC(C(=O)N3CCN(C(c4ccccc4)c4ccccc4)CC3)C2)c1 (stereo not shown)  3.2%
73. O=C(Nc1cc(NC(=O)c2ccccc2)c(C(=O)O)cc1C(=O)O)c1ccccc1  3.25%
74. COc1ccc(C2C(C#N)=C(N)N(c3c(F)cccc3F)C3=C2C(=O)CCC3)cc1OC (stereo not shown)  3.26%
75. COc1ccc(-c2cc3c(O)nncn3n2)cc1  3.3%
76. Cc1ccccc1Cn1c2ccccc2c2cnn(CC(=O)NC(C)C)c(=O)c21  3.4%
77. COc1ccccc1C(=O)Nc1ccc2oc(-c3cccnc3)nc2c1  3.53%
78. COc1ccc(Cl)cc1C(=O)Nc1cccc(C)c1C  4.49%
79. COc1cccc(-c2nc(S)c3c(n2)Oc2cc(O)ccc2C3)c1OC  4.6%
80. Cc1cc(C(F)(F)F)c(C#N)c(SCC(=O)Nc2ccc(F)cc2)n1  4.75%
81. Cc1cc(Cl)ccc1N(CC(=O)N1CCCCCC1)S(C)(=O)=O  4.76%
82. Cc1ccc(-n2ncc3c(NC4CCCCC4)ncnc32)c(C)c1  4.77%
83. CC1CCc2nn(CC(=O)N3CCC4(CC3)OCCO4)cc2C1 (stereo not shown)  4.95%
84. CC(C)(C)c1ccc(C(=O)Nc2ncc(Cc3ccccc3)s2)cc1  4.95%
85. Cc1ccc(-c2noc(CCC(=O)N3CCN(Cc4ccccc4)CC3)n2)cc1  5.1%
86. N=c1c(C(=O)NCc2ccco2)cc2c(=O)n3ccccc3nc2n1CCc1ccccc1  5.17%
87. NS(=O)(=O)c1ccc(-n2c(S)nnc2-c2ccc3ccccc3n2)cc1  5.5%
88. CN(C)C(=O)c1ccc(N/C=C2/C(=O)NC(=O)N(c3ccc(Cl)cc3)C2=O)cc1  5.58%
89. CC(=O)Nc1ccc(N2C(=O)CC(Sc3nc4c(cc3C#N)CCCCC4)C2=O)cc1 (stereo not shown)  5.67%
90. CCc1nnc(SCc2cccc(F)c2)c2cc3oc(C)cc3n12  5.69%
91. N#CC1=C(N)Oc2c(c(O)nc3ccccc23)C1c1ccccc1C(F)(F)F (stereo not shown)  6.24%
92. CC(=O)N1C(=N)S/C(=C/c2cc3cccc(C)c3nc2N2CCCCC2)C1=O  6.7%
93. O=C(NCCc1ccccc1)c1ccccc1Cl  6.8%
94. CC(C)n1c(CCCO)nc2ccccc21  7.86%
95. CC(C)N1C(=O)/C(=C\c2ccc(OCC(N)=O)c(Br)c2)S/C1=N/c1ccccc1  9.61%
96. COc1ccc(C=C2C(=O)N(C)C(=O)N(C)C2=O)c(OC)c1  11.8%
97. CC1=NN(Cc2c(C)nn(Cc3ccccc3)c2C)C(C)(C)C1  16%

From article PMC6919601, “Identification of Plasmodium dipeptidyl aminopeptidase allosteric inhibitors by high throughput screening” (PLoS ONE, 2019)
